Experimental data taken from the supplement of paper PMC12067230.
This is a noisy data set.

experiment: amyloid nucleation score relative to library mode (yeast Sup35 reporter selection) (log enrichment difference); higher = more amyloid nucleation; sequences are the first 22 residues of the Bri2 peptide extended by up to 12 random residues; details: random library (experiment): 1;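 active = nucleation score significantly above 0 at FDR 0.05; inactive = not significantly above 0 or absent from output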
Procedure: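 Random C-terminal extensions of the 22-aa Bri2 peptide by 12 NNK codons; premature stops give shorter extensions. Peptides were fused to the Sup35 nucleation domain in S. cerevisiae [psi-pin-] and selected on -ADE-URA plates for 7 d at 30 °C. The nucleation score is log(output/input), centred to the mode of each of 3 independent libraries (1 input, 3 technical output replicates), with duplicates merged. Sequences absent from the output ('random_non_nuc') were imputed with the library mode value, so they are given as censored (<). Nucleators are scores significantly >0 at FDR 0.05.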
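Also: [psi-pin-] Saccharomyces cerevisiae expressing SupN fusions, induced by 100 µM Cu2SO4, selected 7 d at 30 °C without adenine and uracil, scored by deep sequencing of output versus input.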

Sequence	amyloid nucleation score
EASNCFAIRHFENKFAVETLICCYHRPALRPTMC	inactive
EASNCFAIRHFENKFAVETLICLGQSEN	inactive
EASNCFAIRHFENKFAVETLICWRGRETLMSLIS	inactive
EASNCFAIRHFENKFAVETLICTTSFSSVMLLIV	inactive
EASNCFAIRHFENKFAVETLICASSLGLRLPFMS	-0.0385
EASNCFAIRHFENKFAVETLICNTMGYLYNACLM	inactive
EASNCFAIRHFENKFAVETLICRCAEAPIGSHCA	5.47
EASNCFAIRHFENKFAVETLICPETWVDIEATCR	-0.0935
EASNCFAIRHFENKFAVETLICHRLRWNCSLEWS	inactive
EASNCFAIRHFENKFAVETLICASPSAGPFWGSK	1.25
EASNCFAIRHFENKFAVETLICLHYGGIGGLLSL	4
EASNCFAIRHFENKFAVETLICLRVIIG	inactive
EASNCFAIRHFENKFAVETLICDRQTK	inactive
EASNCFAIRHFENKFAVETLICQWMSEYCVGRFA	1.06
EASNCFAIRHFENKFAVETLICKDVGTCFKDVIE	inactive
EASNCFAIRHFENKFAVETLICRLKLNACTCR	inactive
EASNCFAIRHFENKFAVETLICVSSSRLSVAFGM	inactive
EASNCFAIRHFENKFAVETLICPLSC	inactive
EASNCFAIRHFENKFAVETLICCLISYFEDRLWG	inactive
EASNCFAIRHFENKFAVETLICGLVVHEGCQALG	inactive

Sequence	amyloid nucleation score
EASNCFAIRHFENKFAVETLICLDRWVYTESGWV	3.05
EASNCFAIRHFENKFAVETLICGNTVFDRDVELR	1.18
EASNCFAIRHFENKFAVETLICLENANKSIVEPV	inactive
EASNCFAIRHFENKFAVETLICWSATGACRVLAG	inactive
EASNCFAIRHFENKFAVETLICGGLSRQSSAWGS	inactive
EASNCFAIRHFENKFAVETLICTMRRDLAYGDVE	0.482
EASNCFAIRHFENKFAVETLICELIFSCHILCSS	inactive
EASNCFAIRHFENKFAVETLICKCHCARSVLQLM	inactive
EASNCFAIRHFENKFAVETLICMMRCGHRCRG	0.848
EASNCFAIRHFENKFAVETLICYMLIFCLKVRER	inactive
EASNCFAIRHFENKFAVETLICLNWFWRGCMGKA	inactive
EASNCFAIRHFENKFAVETLICCREESPWQHAGK	inactive
EASNCFAIRHFENKFAVETLICCVGTHGADMCVR	inactive
EASNCFAIRHFENKFAVETLICCGMIACRKGAHD	8.35
EASNCFAIRHFENKFAVETLICIDVSMFINSSGI	4.2
EASNCFAIRHFENKFAVETLICYL	8.77
EASNCFAIRHFENKFAVETLICRSVHGVVRLVRE	inactive
EASNCFAIRHFENKFAVETLICNRRGLRITGRDE	inactive
EASNCFAIRHFENKFAVETLICRRSGRTRRWPGC	6.39

same assay, conditions: random library (experiment): 2

Sequence	amyloid nucleation score
EASNCFAIRHFENKFAVETLICHGCFDHFLLTFR	inactive
EASNCFAIRHFENKFAVETLICFNFAMDMYAILD	inactive
EASNCFAIRHFENKFAVETLICRLDWLV	inactive
EASNCFAIRHFENKFAVETLICRSIHLRLFEVER	inactive
EASNCFAIRHFENKFAVETLICFNSLDKLIGSSW	2.38
EASNCFAIRHFENKFAVETLICHLTWNCMGMIDP	0.852
EASNCFAIRHFENKFAVETLICEETSVQTLGNSY	inactive
EASNCFAIRHFENKFAVETLICNFVSTDYYTFAC	6.82
EASNCFAIRHFENKFAVETLICPYRLVDPSMGWS	inactive
EASNCFAIRHFENKFAVETLICRGALPPSNTMDL	2.37
EASNCFAIRHFENKFAVETLICYSFVMKWGNIVR	inactive
EASNCFAIRHFENKFAVETLICLRRQYFRSIFKS	inactive
EASNCFAIRHFENKFAVETLICIKANCSNGDV	3.47
EASNCFAIRHFENKFAVETLICAKEPVHMQGLRG	1.01
EASNCFAIRHFENKFAVETLICGLYIPIRSGSSF	7.17
EASNCFAIRHFENKFAVETLICMW	8.05
EASNCFAIRHFENKFAVETLICEPYDCGRKTVGL	inactive
EASNCFAIRHFENKFAVETLICPYMKMCNKMGFG	inactive
EASNCFAIRHFENKFAVETLICPPTHMDVLYIVS	inactive
EASNCFAIRHFENKFAVETLICRVEDFR	inactive
EASNCFAIRHFENKFAVETLICVSDRW	1.22

same assay, conditions: random library (experiment): 3

Sequence	amyloid nucleation score
EASNCFAIRHFENKFAVETLICVATYCVDQLTVA	inactive
EASNCFAIRHFENKFAVETLICQASVRHTPEWDS	inactive
EASNCFAIRHFENKFAVETLICVAKREPWSPKWG	inactive
EASNCFAIRHFENKFAVETLICPMEVSRGECVAR	inactive
EASNCFAIRHFENKFAVETLICLSRLSLPASQL	inactive
EASNCFAIRHFENKFAVETLICGVYLLRIVMRCI	inactive
EASNCFAIRHFENKFAVETLICMGVTECRTGDSY	inactive
EASNCFAIRHFENKFAVETLICCDSFVKM	6.67
EASNCFAIRHFENKFAVETLICVEITPVSHWLRK	inactive
EASNCFAIRHFENKFAVETLICKAVMVSVMRGAG	-0.724
EASNCFAIRHFENKFAVETLICHHSPYFYVPV	0.0748
EASNCFAIRHFENKFAVETLICDTAKRQEGELAW	inactive
EASNCFAIRHFENKFAVETLICKHPLRPQSLVPA	inactive
EASNCFAIRHFENKFAVETLICRLRLVRSTVVA	inactive
EASNCFAIRHFENKFAVETLICGEFGSGSLMAGG	inactive
EASNCFAIRHFENKFAVETLICALLVRRATAPAS	inactive
EASNCFAIRHFENKFAVETLICKLVPLGRTDAWD	inactive
EASNCFAIRHFENKFAVETLICRTWCYASCTHGR	1.64
EASNCFAIRHFENKFAVETLICPNYYRVAFLFMA	4.28
EASNCFAIRHFENKFAVETLICVGYDHRHGSGYG	inactive
EASNCFAIRHFENKFAVETLICLTPSVFLSCVW	4.38
EASNCFAIRHFENKFAVETLICRGMQNGMPLANR	inactive
EASNCFAIRHFENKFAVETLICRVKPSRGMLQNG	inactive
EASNCFAIRHFENKFAVETLICLCIVRLLPLVED	inactive
EASNCFAIRHFENKFAVETLICELGSTCSVSSGL	inactive
